# Substitutions are numbered along the chain they refer to. Names may count otherwise. These are yes or no findings as the source states them, for the method shown. Some binding calls cover weakened binding; strength is not graded here.
# T1: TOFU-6, full length (yeast two-hybrid) (C. elegans) (UniProt Q09293)
# T1 sequence: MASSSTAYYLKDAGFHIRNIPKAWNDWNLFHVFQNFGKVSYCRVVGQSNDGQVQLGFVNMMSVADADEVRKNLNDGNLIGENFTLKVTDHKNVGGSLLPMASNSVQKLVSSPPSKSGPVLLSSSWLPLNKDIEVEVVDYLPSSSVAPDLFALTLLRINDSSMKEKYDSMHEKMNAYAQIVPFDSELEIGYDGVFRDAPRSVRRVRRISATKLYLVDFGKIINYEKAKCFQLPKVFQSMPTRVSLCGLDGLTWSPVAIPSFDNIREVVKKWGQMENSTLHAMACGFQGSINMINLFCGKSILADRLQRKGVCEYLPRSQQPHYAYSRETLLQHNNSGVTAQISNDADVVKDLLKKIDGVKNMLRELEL
# T2: ERH-2, full length (yeast two-hybrid) (C. elegans) (UniProt Q20057)
# T2 sequence: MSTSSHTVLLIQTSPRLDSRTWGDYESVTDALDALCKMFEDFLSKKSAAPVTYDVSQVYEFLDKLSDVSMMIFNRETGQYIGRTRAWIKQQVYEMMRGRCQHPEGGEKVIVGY
# B1: IFE-3, full length (yeast two-hybrid) (protein, UniProt O61955 1-251)
# chain: MSTSVAENKALSASGDVNASDASVPPELLTRHPLQNRWALWYLKADRNKEWEDCLKMVSLFDTVEDFWSLYNHIQSAGGLNWGSDYYLFKEGIKPMWEDVNNVQGGRWLVVVDKQKLQRRTQLLDHYWLELLMAIVGEQFDEYGDYICGAVVNVRQKGDKVSLWTRDATRDDVNLRIGQVLKQKLSIPDTEILRYEVHKDSSARTSSTVKPRICLPAKDPAPVKEKGPAATTSPSNPGTEATGTSPATPTP
# B2: PID-3, full length (yeast two-hybrid) (protein, UniProt O76616 1-307)
# chain: MVAHQKADFKSKWAMVVTVNNLNDKKRADLREFSEWFIETLRLEGAFIGHYFNYEAAPVTIVETLPGNFDSCTNAYQKIHKEHPQVVLVVHILPQSQSNEYEWMKVLASRYGFVRQGLLYDNCANRFQNVETDQNSVFRNMCQWIYRSGTAIVRNEGNACGILHGKDPKPTFDKVLFNSEDIKDSVFKVLHAEEEPRGADQENMLKISGYPGMLNTFGIAQLLTPYRVNGITITGAQSAVVALENKFQVYQAVQDFNGKKLDRNHKLQVSSLVVSSPAVPLEWPSLKKSKKLVEQVGKPIRLSKVSS
# B3: PID-1, full length (yeast two-hybrid) (protein, UniProt Q19541 1-169)
# chain: MSAKREFSHITLASTPFKKRIDQNSLKTDSDIEKDTNIAHKCAERFNYNTNLHRKVTLSDRFELAALGYEMKAKPRTIIEKHNDCDEFHFIYRKEKKNDYGTGSPLSAGLSLSNPLPAGRGFLSPAIQNTSNQFTFSGSPRITPQKHTPVSANHKPARSIFDDIPSNIA
# B4: TOST-1, full length (yeast two-hybrid) (protein, UniProt Q18490 1-142)
# chain: MTTAIQYQVIPLADREHSNKVASILENKYKTATNKRITLNERFGVLEKGYTIQATEPETVKNDSDVFFVVHDRNLNSKKEFVENYLAKNPIVNSPEKVFEEEDKENAPTKKAVLKPSSTDEKKLTSSDIYIQEITRSILQSV
# B5: ERH-2, full length (yeast two-hybrid) (protein, UniProt Q20057 1-113)
# chain: T2 sequence
# B6: PID-1(R61C) (yeast two-hybrid) (protein, UniProt Q19541 1-169)
# chain: B3 chain with R61C
# Experiments:
# [1] = molecular target: T1, TOFU-6, full length (yeast two-hybrid) (C. elegans); assay: two-hybrid; yeast strain PJ69-4a, pGAD and pGBD plasmids; low-stringency (TRP-LEU-HIS-) or high-stringency (TRP-LEU-HIS-ADE-) medium as indicated; both orientations screened
# [2] = molecular target: T2, ERH-2, full length (yeast two-hybrid) (C. elegans); assay: as above
# [3] = molecular target: T2, ERH-2, full length (yeast two-hybrid) (C. elegans); assay: two-hybrid; yeast strain PJ69-4a, pGAD and pGBD plasmids; lower-stringency conditions
binder,measurement,setting,value
B1,binding,[1],binds
B2,binding,[2],binds
B3,binding,[2],binds
B4,binding,[2],binds
B5,binding,[3],binds
B6,binding,[2],no binding
